Reference: PMC4336329 (PLoS ONE, 2015)
Hit rate of the full screen: of about 310,000 compounds, about 2,200 (0.71%) showed an effect of 50% or more. Effects have a minus sign here. The list shows a part of the results.

What follows are compounds tested against human ether-à-go-go-related gene (hERG) potassium channel (human, UniProt Q12809) (assay: primary screen, population patch clamp on CHO cells stably expressing hERG).
Sequence of human ether-à-go-go-related gene (hERG) potassium channel (Q12809 whole entry, looked up): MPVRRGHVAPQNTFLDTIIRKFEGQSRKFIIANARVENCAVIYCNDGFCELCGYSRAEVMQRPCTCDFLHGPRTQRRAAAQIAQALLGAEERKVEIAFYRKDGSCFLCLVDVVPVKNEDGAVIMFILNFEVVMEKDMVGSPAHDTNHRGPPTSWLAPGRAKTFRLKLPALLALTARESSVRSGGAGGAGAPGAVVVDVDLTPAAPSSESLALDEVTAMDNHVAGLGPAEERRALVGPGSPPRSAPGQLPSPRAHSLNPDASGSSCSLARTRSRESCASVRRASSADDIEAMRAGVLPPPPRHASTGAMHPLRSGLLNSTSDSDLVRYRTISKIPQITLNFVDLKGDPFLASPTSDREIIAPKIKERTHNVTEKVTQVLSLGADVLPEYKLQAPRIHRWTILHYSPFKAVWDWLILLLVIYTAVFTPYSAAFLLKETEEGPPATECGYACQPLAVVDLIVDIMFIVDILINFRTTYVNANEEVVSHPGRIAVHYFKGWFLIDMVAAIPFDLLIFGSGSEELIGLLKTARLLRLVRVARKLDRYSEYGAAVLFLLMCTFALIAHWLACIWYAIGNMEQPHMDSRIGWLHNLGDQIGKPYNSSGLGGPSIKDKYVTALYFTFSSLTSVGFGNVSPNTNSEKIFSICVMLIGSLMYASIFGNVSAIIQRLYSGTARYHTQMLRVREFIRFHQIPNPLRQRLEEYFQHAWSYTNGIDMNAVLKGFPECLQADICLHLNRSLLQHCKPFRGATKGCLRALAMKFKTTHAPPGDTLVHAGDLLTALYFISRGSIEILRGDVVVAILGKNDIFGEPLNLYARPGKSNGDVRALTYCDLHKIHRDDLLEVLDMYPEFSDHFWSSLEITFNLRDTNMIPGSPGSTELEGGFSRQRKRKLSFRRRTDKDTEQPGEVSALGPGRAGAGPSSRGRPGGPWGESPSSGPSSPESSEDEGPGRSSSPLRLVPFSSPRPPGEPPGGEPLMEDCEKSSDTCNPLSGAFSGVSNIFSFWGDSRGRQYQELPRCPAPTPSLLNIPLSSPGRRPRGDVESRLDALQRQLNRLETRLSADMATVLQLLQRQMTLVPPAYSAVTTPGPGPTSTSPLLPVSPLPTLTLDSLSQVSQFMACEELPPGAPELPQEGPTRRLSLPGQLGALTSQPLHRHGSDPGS

Structure (SMILES) | hERG current change (%, negative = inhibition) at 1uM [%]
O=C(NCc1ccco1)c1ccc(CS(=O)Cc2cccc(Cl)c2)o1 (stereo not drawn) | 4.88
O=C(NCc1cccc(Cl)c1)C1CCC(=O)N(CC2CCCCC2)C1 (stereo not drawn) | 8.23
Nc1nc2c(s1)C(=O)CCC2 | 6.66
CSc1cc(C)c(OCC(=O)Nc2ccc(NC(C)=O)cc2)c(C)c1 | 0.286
CN1C(=O)N(CC(=O)N2CCN(S(=O)(=O)c3ccc(Cl)s3)CC2)C(=O)C12CCCCC2 | -1.65
Cc1ccc(NC(=O)CN2C(=O)COc3ccc(S(=O)(=O)N4CCCC4)cc32)c(C)c1 | 14.8
Fc1ccc(F)c(CN2CCN(c3ncccn3)CC2)c1 | 7.59
COc1ccc(CN(C)C(=O)[C@H](Cc2ccccc2)NC(=O)c2ccco2)c(OC)c1 | 9.47
CN1CCc2c(OCC(=O)NC3CCCCC3)cccc2C1=O | 14.3
CC(C)(C)c1ccccc1NC(=O)c1cccnc1 | 10.8
O=C(Nc1ccc(Oc2cccc(C(F)(F)F)c2)nc1)c1ccccc1 | 16.8
Cc1ccc(NC(=O)CN(C)C(=O)c2cc(-c3ccco3)nc3ccccc23)cc1 | 4.08
CCC(=O)c1ccc2ncccc2c1 | 9.26
CCn1c(=O)cc(OCC(=O)N(C)C2CCCCC2)c2ccccc21 | 8.02
NC(=O)c1cc2nc(-c3ccco3)cc(C(F)(F)F)n2n1 | 8.62
CCc1c(C)c(C#N)c2nc3ccccc3n2c1Nc1c(C)n(C)n(-c2ccccc2)c1=O | -5.95
COc1cccc(NC(=O)CN2CCc3ccccc3C2)c1 | 18.4
O=[N+]([O-])c1ccc(-c2csc(Nc3ccccc3)[n+]2Cc2ccccc2)cc1.[Br-] | 28.3
CCOc1ccc(NC(=O)COC(=O)C23CC4CC(CC(C4)C2)C3)c([N+](=O)[O-])c1 | 9.18
COc1cc([N+](=O)[O-])ccc1NC(=O)CSc1nnc(C)c(C)n1 | 4.53
Cc1[nH]c2ccccc2c1CCNC(=O)c1ccc2nccnc2c1 | 13.9
Nc1ccc2nc(N3CCOCC3)sc2c1 | 15.4

Structure (SMILES) | hERG current change (%, negative = inhibition) at 1uM [%]
Cc1nc(SCC(=O)NC2CCS(=O)(=O)C2)c(C#N)c(C)c1C (stereo not drawn) | 8.69
O=C(Nc1cccc(CCc2ccccn2)c1)c1cc(F)c(F)cc1Cl | 2.96
Cc1cccc(NC(=O)C2CCCN(S(=O)(=O)c3cccc4nonc34)C2)c1 (stereo not drawn) | 19.1
Cc1nn(C)c(C(=O)NN)c1Cl | 6.21
CC(=O)N1c2ccc(S(=O)(=O)NCCC(=O)NC3CCC(C)CC3)cc2CC1C (stereo not drawn) | 14.1
O=[N+]([O-])c1cc(C(F)(F)F)cc([N+](=O)[O-])c1N1CCCNCC1 | 5.07
O=C(NNC(=O)c1ccccc1OCc1ccc(F)cc1)c1ccncc1 | 3.95
CSc1nc2ccc(NC(=O)C3CCCO3)cc2s1 (stereo not drawn) | 3.92
COC(=O)NNC(=O)c1ccc(C)c(Br)c1 | 16.4
Cc1c(O)ccc2cc(S(=O)(=O)c3ccccc3)c(=O)oc12 | 14
Cc1cccc(N2CCN(S(=O)(=O)c3ccc(S(=O)(=O)N4CCCC4)cc3)CC2)c1C | 10.3
CCN(CC)c1ccc(-c2nc3cnccn3c2NC2CCCC2)cc1 | 5.75
CN1C[C@@H]2C(c3ccc(Cl)nc3)C3(c4ccccc4)CC2(C3)[C@H]1c1ccccc1 (stereo partly drawn) | 2.6
COc1ccccc1CN(CC(=O)NCc1ccc2c(c1)OCO2)C(=O)c1ccc2c(c1)OCCO2 | 7.55
Cc1cc(C(=O)Nc2cccc([N+](=O)[O-])c2)c(C)o1 | 4.4
CC(C)(C(=O)c1ccccc1)/[N+]([O-])=C/c1ccccc1F | 9.19
O=C(NCc1cccnc1)C(=O)NC1CCCCC1 | -3.95
Brc1ccc(C2=Nc3ccccc3C(c3ccncc3)=NN2)cc1 | 14.5
CCOC(=O)c1nnn(-c2nonc2N)c1COc1c(C=O)cccc1OC | -12.9
CC(C)(C)OC(=O)CN1c2cccc3cccc(c23)S1(=O)=O | 8.39
CCc1ccc2nc(NC(=O)c3cc(C)on3)sc2c1 | 3.39
C=CCNc1ncnc2c1cnn2-c1cccc(C)c1 | 7.45

Structure (SMILES) | hERG current change (%, negative = inhibition) at 1uM [%]
CC1(N2CCOCC2)C(=O)c2ccccc2C1=O.Cl | -8.82
Cc1nn(C)c(C(=O)N/N=C/c2cccnc2)c1Br | 16.9
c1ccc(Cc2ccc(OCCn3cncn3)cc2)cc1 | -1.47
COC(=O)C1=C(c2ccc(F)cc2OCc2ccccc2)C[C@@H]2CC[C@H]1N2C(=O)NCc1ccco1 | 2.23
CCCCN(C(=O)c1ccc(S(=O)(=O)N2CCCC2)cc1)C1CCS(=O)(=O)C1 (stereo not drawn) | 6.71
Cc1cccc(OCC(=O)Nc2cccc(-c3nnc(-c4ccccc4)o3)c2)c1C | 1.91
CC(C)C1(C)N=C(c2nc3ccccc3cc2C(=O)O)NC1=O (stereo not drawn) | -0.255
COc1ccc(S(=O)(=O)N2CC(C(=O)O)Oc3ccccc32)cc1 (stereo not drawn) | 16
O=C(CSc1nnc(-c2ccco2)n1-c1ccccc1)NCc1ccco1 | -19.1
Cc1cc(NC(=O)CCC(=O)N(c2cccnc2)C(C(=O)NC2CCCC2)c2ccccc2F)no1 (stereo not drawn) | 8.56
O=C(Nc1cccc(F)c1)C1CCCN(S(=O)(=O)c2ccc(-n3cnnn3)cc2)C1 (stereo not drawn) | -2.85
Cc1ccc(-c2csc3ncnc(N4CCN(c5ccccc5O)CC4)c23)cc1 | 18.7
Cc1ccc2cc(C=C(C#N)C#N)c(N3CCCCC3)nc2c1 | 9.77
COc1cc2cc(C)nc(Cc3cccc4ccccc34)c2cc1OC | 10.1
CCOC(=O)C1CCN(C(=O)c2cccc(S(=O)(=O)Nc3ccc(C)cc3C)c2)CC1 | 17.5
COCCCNc1nc(N)c([N+](=O)[O-])c(Nc2ccccc2OC)n1 | 17.4
CCc1sc2nc(SCC(=O)Nc3cc(C)on3)n(-c3cccc(OC)c3)c(=O)c2c1C | 26.6
CCOC(=O)C1CCCN(c2ncnc3c2cnn3-c2cccc(C)c2)C1 (stereo not drawn) | -4.9
O=C(O)Cc1c(-c2ccccc2Cl)c2cc(Br)ccc2[nH]c1=O | 4.33
Fc1ccccc1-c1n[nH]c(=S)n1Cc1ccccc1 | 16.6
Cc1ccc(S(=O)(=O)C2(C(=O)Nc3cccnc3)CC2)cc1 | 3.33
C/C(=N\NC(=O)COc1ccc(C#N)cc1)c1ccccc1OC(F)F | 6.16

Structure (SMILES) | hERG current change (%, negative = inhibition) at 1uM [%]
CCS(=O)(=O)c1cc([N+](=O)[O-])c(Sc2ccccc2N)s1 | 9.09
O=C(/C=C/c1ccco1)Nc1ccc2nn(-c3ccccc3)nc2c1 | 5.34
COc1cccc(NS(=O)(=O)c2ccc3[nH]cc(C(=O)N(C)Cc4ccco4)c(=O)c3c2)c1 | 15.6
O=C(CCc1ccc(O)c(O)c1)NNC(=S)NCCc1ccccc1 | 11.3
CC(=O)OC1(c2ccccc2)CCN(C)CC1(C)C.Cl (stereo not drawn) | 21.7
O=C(COC(=O)/C=C/c1cccc(C(F)(F)F)c1)NCc1ccc(F)cc1 | 12.1
Cc1ccc(S(=O)(=O)NCC(=O)OCC(=O)N2N=C(c3ccc(Cl)cc3)CC2c2ccco2)cc1C (stereo not drawn) | 13.2
O=C(CNC(=O)c1ccccc1F)OCn1nnc2ccccc2c1=O | 7.99
COc1ccc(/C=N/NC(=O)c2ccncc2)c(C(=O)O)c1OC | 6.43
Cc1cccc(Nc2nnc(SCC(=O)c3ccc(Br)s3)s2)c1C | 15.2
O=C(CCCCCn1nnc2ccccc2c1=O)N[C@H](C(=O)O)c1ccccc1 | 13.9
O=C(CSc1ccc2c(c1)OCCO2)N1CCN(c2ccccc2)CC1 | 6.52
COc1cccc(-n2c(CN3CCN(C)CC3)nc3ccc([N+](=O)[O-])cc3c2=O)c1 | 1.46
COc1ccc(-c2nnn(CC(=O)c3ccccc3)n2)cc1OC | 9.19
CCOc1ccccc1-n1c(O)c(C=NCCCn2ccnc2)c(=O)[nH]c1=O | 14.1
CC(C)CN(CC(C)C)C(=O)c1cc2c(=O)n3ccccc3nc2s1 | 12.9
O=c1c2ccccc2nnn1COc1cccc2ccccc12 | 12
O=c1nc2n(c3ncccc13)CCCCC2 | 6.48
O=C(O)C(Oc1ccc2c(c1)oc(=O)c1ccccc12)c1ccccc1 (stereo not drawn) | 14.6
Cc1ccc(C(=O)Nc2ccc(C(=O)N/N=C/c3cccnc3)cc2)cc1 | 14.6
CCOC(=O)c1nn(-c2cccc(OC)c2)c(-c2ccccc2)c1C(=O)c1ccccc1 | 11.6
